Assay results as given in the supplement of paper PMC8728848.
This is one part of the list.

Key:
Assay in all cases: glycan array binding signal (z-score within array); higher = stronger binding
Conditions in all cases: glycan notation: IUPAC condensed, linker removed
Fuc(a1-2)Gal = target: Fuc(a1-2)Gal
Summary of the method: (§1)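 The Consortium for Functional Glycomics database supplied 3228 glycan arrays, of which those lacking an available protein sequence were dropped. The binding signal, a within-array Z-score, was averaged across arrays of the same protein sequence and across linkers. Negative scores can be read as non-binding.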

Fuc(a1-2)Gal(b1-3)GalNAc = target: Fuc(a1-2)Gal(b1-3)GalNAc
Summary of the method: as §1

[1] = target: Fuc(a1-2)Gal(b1-3)GalNAc(a1-3)[Fuc(a1-2)]Gal(b1-4)Glc
Summary of the method: as §1

[2] = target: Fuc(a1-2)Gal(b1-3)GalNAc(a1-3)[Fuc(a1-2)]Gal(b1-4)GlcNAc
Summary of the method: as §1

[3] = target: Fuc(a1-2)Gal(b1-3)GalNAc(b1-3)Gal
Summary of the method: as §1

[4] = target: Fuc(a1-2)Gal(b1-3)GalNAc(b1-3)Gal(a1-4)Gal(b1-4)Glc
Summary of the method: as §1

[5] = target: Fuc(a1-2)Gal(b1-3)GalNAc(b1-4)[Neu5Ac(a2-3)]Gal(b1-4)Glc
Summary of the method: as §1

Fuc(a1-2)Gal(b1-3)GlcNAc = target: Fuc(a1-2)Gal(b1-3)GlcNAc
Summary of the method: as §1

[6] = target: Fuc(a1-2)Gal(b1-3)GlcNAc(b1-2)Man(a1-3)[Fuc(a1-2)Gal(b1-3)GlcNAc(b1-2)Man(a1-6)]Man(b1-4)GlcNAc(b1-4)GlcNAc
Summary of the method: as §1

[7] = target: Fuc(a1-2)Gal(b1-3)GlcNAc(b1-2)Man(a1-3)[Fuc(a1-2)Gal(b1-3)GlcNAc(b1-2)Man(a1-6)]Man(b1-4)GlcNAc(b1-4)[Fuc(a1-6)]GlcNAc
Summary of the method: as §1

[8] = target: Fuc(a1-2)Gal(b1-3)GlcNAc(b1-3)Gal(b1-4)Glc
Summary of the method: as §1

[9] = target: Fuc(a1-2)Gal(b1-3)GlcNAc(b1-3)GalNAc
Summary of the method: as §1

[10] = target: Fuc(a1-2)Gal(b1-3)GlcNAc(b1-3)[Fuc(a1-2)Gal(b1-3)GlcNAc(b1-6)]GalNAc
Summary of the method: as §1

[11] = target: Fuc(a1-2)Gal(b1-3)GlcNAc(b1-3)[Gal(b1-4)GlcNAc(b1-6)]Gal(b1-4)Glc
Summary of the method: as §1

[12] = target: Fuc(a1-2)Gal(b1-3)GlcNAc(b1-3)[Neu5Ac(a2-6)Gal(b1-4)GlcNAc(b1-6)]Gal(b1-4)Glc
Summary of the method: as §1

[13] = target: Fuc(a1-2)Gal(b1-3)GlcNAc6S
Summary of the method: as §1

[14] = target: Fuc(a1-2)Gal(b1-3)[Fuc(a1-4)]GlcNAc
Summary of the method: as §1

[15] = target: Fuc(a1-2)Gal(b1-3)[Fuc(a1-4)]GlcNAc(b1-2)Man(a1-3)[Fuc(a1-2)Gal(b1-3)[Fuc(a1-4)]GlcNAc(b1-2)Man(a1-3)]Man(b1-4)GlcNAc(b1-4)GlcNAc
Summary of the method: as §1

[16] = target: Fuc(a1-2)Gal(b1-3)[Fuc(a1-4)]GlcNAc(b1-2)Man(a1-3)[Fuc(a1-2)Gal(b1-3)[Fuc(a1-4)]GlcNAc(b1-2)Man(a1-6)]Man(b1-4)GlcNAc(b1-4)[Fuc(a1-6)]GlcNAc(b1-4)[Fuc(a1-6)]GlcNAc
Summary of the method: as §1

[17] = target: Fuc(a1-2)Gal(b1-3)[Fuc(a1-4)]GlcNAc(b1-3)[Fuc(a1-3)[Gal(b1-4)]GlcNAc(b1-6)]Gal(b1-4)Glc
Summary of the method: as §1

[18] = target: Fuc(a1-2)Gal(b1-3)[Fuc(a1-4)]GlcNAc(b1-3)[Gal(b1-4)GlcNAc(b1-6)]Gal(b1-4)Glc
Summary of the method: as §1

[19] = target: Fuc(a1-2)Gal(b1-4)Fuc(a1-3)]GlcNAc(b1-2)Man(a1-3)[Fuc(a1-2)Gal(b1-4)[Fuc(a1-3)]GlcNAc(b1-2)Man(a1-6)]Man(b1-4)GlcNAc(b1-4)GlcNAc
Summary of the method: as §1

Fuc(a1-2)Gal(b1-4)Glc = target: Fuc(a1-2)Gal(b1-4)Glc
Summary of the method: as §1

Fuc(a1-2)Gal(b1-4)Glc6S = target: Fuc(a1-2)Gal(b1-4)Glc6S
Summary of the method: as §1

Fuc(a1-2)Gal(b1-4)GlcNAc = target: Fuc(a1-2)Gal(b1-4)GlcNAc
Summary of the method: as §1

[20] = target: Fuc(a1-2)Gal(b1-4)GlcNAc(b1-2)Man
Summary of the method: as §1

[21] = target: Fuc(a1-2)Gal(b1-4)GlcNAc(b1-2)Man(a1-3)[Fuc(a1-2)Gal(b1-4)GlcNAc(b1-2)Man(a1-6)]Man(b1-4)GlcNAc(b1-4)GlcNAc
Summary of the method: as §1

[22] = target: Fuc(a1-2)Gal(b1-4)GlcNAc(b1-2)Man(a1-3)[Fuc(a1-2)Gal(b1-4)GlcNAc(b1-2)Man(a1-6)]Man(b1-4)GlcNAc(b1-4)[Fuc(a1-6)]GlcNAc
Summary of the method: as §1

[23] = target: Fuc(a1-2)Gal(b1-4)GlcNAc(b1-2)[Fuc(a1-2)Gal(b1-4)GlcNAc(b1-4)]Man(a1-3)[Fuc(a1-2)Gal(b1-4)GlcNAc(b1-2)Man(a1-6)]Man(b1-4)GlcNAc(b1-4)GlcNAc
Summary of the method: as §1

[24] = target: Fuc(a1-2)Gal(b1-4)GlcNAc(b1-3)Gal(b1-4)GlcNAc
Summary of the method: as §1

[25] = target: Fuc(a1-2)Gal(b1-4)GlcNAc(b1-3)Gal(b1-4)GlcNAc(b1-2)Man(a1-3)[Fuc(a1-2)Gal(b1-4)GlcNAc(b1-3)Gal(b1-4)GlcNAc(b1-2)Man(a1-6)]Man(b1-4)GlcNAc(b1-4)GlcNAc
Summary of the method: as §1

[26] = target: Fuc(a1-2)Gal(b1-4)GlcNAc(b1-3)Gal(b1-4)GlcNAc(b1-3)Gal(b1-4)GlcNAc
Summary of the method: as §1

[27] = target: Fuc(a1-2)Gal(b1-4)GlcNAc(b1-3)GalNAc
Summary of the method: as §1

[28] = target: Fuc(a1-2)Gal(b1-4)GlcNAc(b1-3)[Fuc(a1-2)Gal(b1-4)GlcNAc(b1-6)]GalNAc
Summary of the method: as §1

[29] = target: Fuc(a1-2)Gal(b1-4)GlcNAc(b1-3)[Fuc(a1-3)[Gal(b1-4)]GlcNAc(b1-6)]Gal(b1-4)Glc
Summary of the method: as §1

[30] = target: Fuc(a1-2)Gal(b1-4)GlcNAc(b1-6)GalNAc
Summary of the method: as §1

[31] = target: Fuc(a1-2)Gal(b1-4)GlcNAc6S
Summary of the method: as §1

B1: Jacalin (Artocarpus integrifolia) (protein)
chain: MAYSSLLSLSVLALLFSISSADTRKWFLANGINQNPIGIIEAAVGVSEDLLNLNGMEAKNDEQSGISQTVIVGPWGAKVSTSSNGKAFDDGAFTGIREINLSYNKETAIGDFQVVYDLNGSPYVGQNHKSFITGFTPVKISLDFPSEYIMEVSGYTGNVSGYVVVRSLTFKTNKKTYGPYGVTSGTPFNLPIENGLIVGFKGSIGYWLDYFSMYLSL
glycan array binding signal (z-score) (Fuc(a1-2)Gal): -0.25
glycan array binding signal (z-score) (Fuc(a1-2)Gal(b1-3)GalNAc): 0.218
glycan array binding signal (z-score) [1]: -0.246
glycan array binding signal (z-score) [2]: -0.265
glycan array binding signal (z-score) [3]: 1.4
glycan array binding signal (z-score) [4]: 0.229
glycan array binding signal (z-score) [5]: -0.263
glycan array binding signal (z-score) (Fuc(a1-2)Gal(b1-3)GlcNAc): -0.268
glycan array binding signal (z-score) [6]: -0.21
glycan array binding signal (z-score) [7]: -0.229
glycan array binding signal (z-score) [8]: -0.274
glycan array binding signal (z-score) [9]: 0.475
glycan array binding signal (z-score) [10]: -0.223
glycan array binding signal (z-score) [11]: -0.276
glycan array binding signal (z-score) [12]: -0.255
glycan array binding signal (z-score) [13]: -0.134
glycan array binding signal (z-score) [14]: -0.24
glycan array binding signal (z-score) [15]: -0.154
glycan array binding signal (z-score) [16]: -0.204
glycan array binding signal (z-score) [17]: -0.192
glycan array binding signal (z-score) [18]: -0.207
glycan array binding signal (z-score) [19]: -0.226
glycan array binding signal (z-score) (Fuc(a1-2)Gal(b1-4)Glc): -0.256
glycan array binding signal (z-score) (Fuc(a1-2)Gal(b1-4)Glc6S): -0.249
glycan array binding signal (z-score) (Fuc(a1-2)Gal(b1-4)GlcNAc): -0.27
glycan array binding signal (z-score) [20]: -0.237
glycan array binding signal (z-score) [21]: -0.227
glycan array binding signal (z-score) [22]: -0.199
glycan array binding signal (z-score) [23]: -0.205
glycan array binding signal (z-score) [24]: -0.282
glycan array binding signal (z-score) [25]: -0.199
glycan array binding signal (z-score) [26]: -0.264
glycan array binding signal (z-score) [27]: 0.829
glycan array binding signal (z-score) [28]: -0.232
glycan array binding signal (z-score) [29]: -0.249
glycan array binding signal (z-score) [30]: -0.164
glycan array binding signal (z-score) [31]: -0.237
